Data published in the supplement of paper PMC4967469.

Tests used:
Experiment in all cases: Viability of human cancer cell lines after 72 h of drug (GDSC screen)
[1] = compound: COc1cc([C@@H]2c3cc4c(cc3[C@@H](O[C@@H]3O[C@@H]5CO[C@@H](C)O[C@H]5[C@H](O)[C@H]3O)[C@H]3COC(=O)[C@H]23)OCO4)cc(OC)c1O [Etoposide]; settings: top dose 16 µM
Experimental: (§1)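 Human cancer cell lines in 384-well plates, medium with 10% serum, drug for 72 h over a 256-fold dose range (nine 2-fold or five 4-fold steps up to the top dose). Adherent lines were fixed and stained with the nucleic acid dye Syto60, suspension lines read with resazurin; signal relative to control wells, capped at 0 and 100%. One two-parameter sigmoid per drug and line, fitted in a mixed model over all curves with the slope shared within a line.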

[2] = compound: COc1cc(C(=O)NC2CCN(C)CC2)ccc1Nc1ncc2c(n1)N(C1CCCC1)C(C)CC(=O)N2C [NPK76-II-72-1]; settings: top dose 10.24 µM; top dose inferred
Experimental: as §1

[3] = compound: O=C(O)c1ccc(-c2c[nH]c3ncc(-c4ccccc4)cc23)cc1C1CCCC1 [GSK-650394]; settings: top dose 16 µM; top dose inferred
Experimental: as §1

[4] = compound: Cc1ccc2nc(NCCN)c3ncc(C)n3c2c1 [BMS-345541]; settings: top dose 16 µM
Experimental: as §1

[5] = compound: C=C(c1ccc(C(=O)O)cc1)c1cc2c(cc1C)C(C)(C)CCC2(C)C [Bexarotene]; settings: top dose 8 µM
Experimental: as §1

[6] = compound: Oc1nc(-c2ccc(C(F)(F)F)cc2)nc2c1CSCC2 [XAV 939]; settings: top dose 5 µM; top dose inferred
Experimental: as §1

[7] = compound: COc1ccc(C(=O)CC2(O)C(=O)Nc3c(Cl)ccc(Cl)c32)cc1 [YK 4-279]; settings: top dose 10 µM
Experimental: as §1

Row | Cell Line | AUC [1] | IC50 [1] | AUC [2] | IC50 [2] | AUC [3] | IC50 [3] | AUC [4] | IC50 [4] | AUC [5] | IC50 [5] | AUC [6] | IC50 [6] | AUC [7] | IC50 [7]
1 | KYSE-180 (oesophagus, adherent) | 0.635 | 2.32 µM | 0.922 | > 10.2 µM | 0.626 | 2.19 µM | 0.831 | 9.49 µM | 0.731 | 2.19 µM | 0.918 | > 5 µM | 0.661 | 1.71 µM
2 | KYSE-270 (oesophagus, adherent) | 0.278 | 0.263 µM | 0.922 | > 10.2 µM | 0.609 | 1.9 µM | 0.866 | 11 µM | 0.985 | > 8 µM | 0.963 | > 5 µM | 0.683 | 1.86 µM
3 | LC-2-ad (lung adenocarcinoma, adherent) | 0.548 | 1.35 µM | 0.663 | 1.84 µM | 0.845 | 12 µM | 0.901 | > 16 µM | 0.891 | > 8 µM | 0.961 | > 5 µM | 0.571 | 0.985 µM
4 | LU-99A (large cell lung carcinoma, adherent) | 0.643 | 2.47 µM | 0.918 | > 10.2 µM | 0.871 | 14.8 µM | 0.979 | > 16 µM | 0.987 | > 8 µM | 0.986 | > 5 µM | 0.629 | 1.41 µM
5 | MDA-MB-157 (breast, adherent) | 0.849 | 12.5 µM | 0.936 | > 10.2 µM | 0.984 | > 16 µM | 0.952 | > 16 µM | 0.894 | > 8 µM | 0.982 | > 5 µM | 0.845 | 7.5 µM
6 | MFE-319 (endometrium, adherent) | 0.517 | 1.11 µM | 0.895 | > 10.2 µM | 0.683 | 3.18 µM | 0.907 | > 16 µM | 0.865 | 6.73 µM | 0.962 | > 5 µM | 0.728 | 2.71 µM
7 | MKN1 (stomach, adherent) | 0.388 | 0.482 µM | 0.926 | > 10.2 µM | 0.802 | 8.4 µM | 0.845 | 12.5 µM | 0.962 | > 8 µM | 0.977 | > 5 µM | 0.756 | 3.59 µM
8 | ML-1 (thyroid, adherent) | 0.471 | 0.823 µM | 0.879 | > 10.2 µM | 0.825 | 11.9 µM | 0.949 | > 16 µM | 0.728 | 2.51 µM | 0.969 | > 5 µM | 0.922 | > 10 µM
9 | MZ7-mel (melanoma, adherent) | 0.683 | 3.33 µM | 0.902 | > 10.2 µM | 0.916 | > 16 µM | 0.776 | 6.61 µM | 0.985 | > 8 µM | 0.985 | > 5 µM | 0.771 | 3.98 µM
10 | NB7 (neuroblastoma, adherent) | 0.93 | > 16 µM | 0.882 | > 10.2 µM | 0.879 | > 16 µM | 0.876 | > 16 µM | 0.986 | > 8 µM | 0.759 | 1.82 µM | 0.984 | > 10 µM
11 | NCI-H196 (small cell lung carcinoma, adherent) | 0.971 | > 16 µM | 0.867 | 9.94 µM | 0.977 | > 16 µM | 0.923 | > 16 µM | 0.985 | > 8 µM | 0.987 | > 5 µM | 0.954 | > 10 µM
12 | NCI-H1355 (lung adenocarcinoma, adherent) | 0.43 | 0.591 µM | 0.972 | > 10.2 µM | 0.835 | > 16 µM | 0.958 | > 16 µM | 0.847 | > 8 µM | 0.767 | 2.71 µM | 0.724 | 3.65 µM
13 | NCI-H1915 (large cell lung carcinoma, adherent) | 0.974 | > 16 µM | 0.892 | > 10.2 µM | 0.976 | > 16 µM | 0.923 | > 16 µM | 0.902 | > 8 µM | 0.986 | > 5 µM | 0.704 | 2.38 µM
14 | NCI-H2023 (lung adenocarcinoma, adherent) | 0.816 | 11.8 µM | 0.972 | > 10.2 µM | 0.935 | > 16 µM | 0.965 | > 16 µM | 0.899 | > 8 µM | 0.953 | > 5 µM | 0.773 | 4.87 µM
15 | NCI-H2085 (lung adenocarcinoma, adherent) | 0.736 | 5.03 µM | 0.976 | > 10.2 µM | 0.862 | 15.7 µM | 0.853 | 14.2 µM | 0.942 | > 8 µM | 0.965 | > 5 µM | 0.912 | > 10 µM
16 | NCI-H2170 (lung squamous cell carcinoma, adherent) | 0.587 | 1.75 µM | 0.94 | > 10.2 µM | 0.852 | 13.2 µM | 0.943 | > 16 µM | 0.913 | > 8 µM | 0.942 | > 5 µM | 0.82 | 6.07 µM
17 | NUGC-3 (stomach, adherent) | 0.522 | 1.16 µM | 0.983 | > 10.2 µM | 0.873 | > 16 µM | 0.915 | > 16 µM | 0.917 | > 8 µM | 0.933 | > 5 µM | 0.655 | 1.78 µM
18 | OAW-28 (ovary, adherent) | 0.615 | 2.25 µM | 0.757 | 4.42 µM | 0.89 | > 16 µM | 0.969 | > 16 µM | 0.94 | > 8 µM | 0.929 | > 5 µM | 0.75 | 4.04 µM
19 | OSC-19 (head and neck, adherent) | 0.753 | 5.54 µM | 0.95 | > 10.2 µM | 0.866 | 15.3 µM | 0.89 | > 16 µM | 0.984 | > 8 µM | 0.891 | > 5 µM | 0.71 | 2.52 µM

Lines with a small IC50 respond at low doses; fits outside the tested doses are given as limits. The AUC spans the tested range (256-fold, ending at the top dose) of the same fit: 1 means no effect, lower means more sensitive. For some assays here: An inferred top dose was derived from the fitted curves, not read from the paper.
